# Assay results from the supplement of paper PMC12217912.
# The list shows a part of the results. The full chains were built here from the parent and the listed change. Inactive controls read about 0.05.
# B1: TEV protease; numbered along this chain (parent)
# chain: MGESLFKGPRDYNPISSSICHLTNESDGHTTSLYGIGFGPFIITNKHLFRRNNGTLVVQSLHGVFKVKDTTTLQQHLVDGRDMIIIRMPKDFPPFPQKLKFREPQREERICLVTTNFQTKSMSSMVSDTSCTFPSGDGIFWKHWIQTKDGQCGSPLVSTRDGFIVGIHSASNFTNTNNYFTSVPKNFMELLTNQEAQQWVSGWRLNADSVLWGGHKVFMVKPEEPFQPVKEATQL
# Variants of: B1
# Test: raw area under fraction-flipped curve 0-4 h after induction (AUC4h, not background-subtracted), DNA-recorder readout of cleavage of the substrate (dimensionless); higher = more cleavage of the substrate by the protease variant
# Settings: temperature: 34 °C; time window: 0-4 h after rhamnose induction
# Method: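 In vivo DNA recorder in E. coli TOP10(DE3) ΔrhaA at 34 °C. Each TEVp single-site mutant (parent TEVp 0) is paired with a single-site variant of the 7-mer TEVs (canonical ENLYFQ|S). The substrate sits between flexible linkers in a Bxb1-sfGFP-TEVs-SsrA fusion, so cleavage stabilises Bxb1 and speeds flipping of a recombination array, read by NGS. The value is the raw area under the fraction-flipped curve over 0-4 h after rhamnose induction (AUC4h), with ≥20 reads per time point. It is not background-subtracted; inactive controls average about 0.047.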
# 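Note: Bxb1 expression induced with 0.2% (w/v) L-rhamnose at OD600 near 0.5, cultures sampled hourly, flipped fraction per protease–substrate barcode pair counted by paired-end Illumina sequencing.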
Variant,area with substrate EALYFQS,area with substrate ECLYFQS,area with substrate EDLYFQS,area with substrate EILYFQS,area with substrate EKLYFQS,area with substrate ELLYFQS,area with substrate EPLYFQS,area with substrate EQLYFQS,area with substrate ERLYFQS,area with substrate ESLYFQS,area with substrate EYLYFQS,area with substrate EELYFQS,area with substrate EFLYFQS,area with substrate EGLYFQS,area with substrate EVLYFQS,area with substrate EWLYFQS,area with substrate EHLYFQS,area with substrate ETLYFQS,area with substrate EMLYFQS
M88W,0.071,0.0883,0.0841,0.0898,0.0761,0.11,0.0694,0.0984,0.0767,0.0907,0.0796,,,,,,,,
P93S,0.101,0.108,0.0996,0.0685,,0.091,,0.0999,,0.118,,0.141,0.0918,0.104,0.0784,0.0983,,,
P96N,0.116,0.0718,0.119,0.082,0.0942,,,,0.106,0.103,0.102,,,,0.0953,0.115,0.0812,,
P96S,0.16,,,0.0938,0.108,0.0988,0.129,,0.0978,0.115,0.109,,,,,,,0.115,
P96V,0.125,0.105,0.122,0.101,0.0945,0.0836,0.115,0.107,0.0839,0.0984,0.0878,0.165,0.111,0.0816,0.0885,0.0896,,0.1,0.105
P96Y,0.143,0.122,,0.0605,,,,,0.119,0.143,0.15,,,,,,,,
E103G,0.0977,0.0897,0.126,0.0816,0.0829,0.0702,0.0965,0.121,0.0975,0.0947,,0.115,0.0735,0.0731,0.0836,,,0.0896,0.0896
P104D,0.0452,0.0544,0.0546,0.0383,,0.0458,,0.0606,0.0447,0.0523,,0.0527,,0.0505,,0.0513,0.0421,0.0532,0.0445
P104L,0.0587,,0.0507,0.0616,0.064,0.0486,0.0498,0.0536,0.0698,0.0542,0.059,0.0577,0.0582,0.0685,0.0497,0.0441,0.0525,0.0614,0.0675
P104M,0.0616,0.0519,0.066,0.05,0.0512,0.0681,0.0534,0.0606,0.0481,,0.0462,0.0553,,,0.0617,0.0537,0.0321,0.0515,
P104T,0.044,0.0731,,0.0333,,,,,0.062,0.0654,,0.0955,,,,,0.079,,0.0471
P104W,0.0431,0.0464,0.0217,,0.0571,,0.0358,0.11,0.0578,0.0521,0.0565,0.0515,0.0484,0.0507,0.0532,0.0566,0.0513,0.0612,0.0542
Q105F,0.112,0.109,0.118,,0.0776,0.0784,0.0748,0.122,0.0822,0.0875,,0.108,0.0871,,0.084,0.0862,0.113,,0.144
Q105W,0.125,0.0968,0.0964,0.0772,0.091,0.0663,0.111,,0.108,0.102,0.126,0.125,0.104,0.0795,0.0847,0.0785,,0.133,0.0949
R106D,0.12,0.112,0.11,0.105,0.116,0.102,,0.088,0.111,0.101,,0.099,0.1,0.0865,0.0939,0.0935,0.109,0.128,0.107
L112C,0.0842,,0.0821,0.0851,0.0892,0.0702,,0.0798,0.084,0.0687,0.0708,0.0783,,0.0662,0.0779,0.074,,,
L112F,0.104,0.096,0.128,0.0907,0.112,0.0631,0.117,0.0861,0.12,0.108,0.105,0.102,0.0916,0.0823,0.0854,,0.0902,0.0939,
L112I,0.0861,,0.141,0.0726,,,0.0858,0.0829,0.136,0.107,,0.0942,0.0457,0.122,0.0875,,0.164,0.117,0.107
L112N,0.0838,0.0662,0.0943,0.0877,0.0633,0.0537,,,0.0805,0.0757,0.0822,0.0747,,0.0803,0.103,0.066,,0.0813,0.0702
L112S,0.0717,,0.134,0.0045,0.0632,0.0594,0.0717,0.0565,,0.0762,,,0.0792,,0.0659,0.0751,,0.102,0.0824
L112Y,0.0801,0.0706,,0.0663,0.0743,0.0728,0.0762,0.0774,0.0847,0.0752,0.0831,0.0779,,,0.0557,,0.0738,,0.064
F117N,0.0964,0.0959,0.111,0.101,0.077,,,,0.0955,0.107,,0.126,0.124,0.111,0.0804,0.111,,,0.0847
K120F,0.105,0.122,0.116,0.0874,0.07,0.123,,0.104,0.0612,0.105,,0.127,0.105,,0.0758,,0.119,,0.121
K120P,0.13,0.112,,,0.119,0.098,0.176,,0.0979,0.0891,,0.112,,0.0693,0.0853,0.0839,,0.0995,
K120Y,0.0955,,,0.0857,,0.0973,0.156,0.105,0.114,0.0912,0.0948,0.0964,0.0924,,0.0819,,0.1,0.103,0.101
D128A,0.147,0.12,,0.112,,,,0.161,,0.121,,0.114,0.128,,0.0508,0.13,,,
